Source: paper PMC6919601, “Identification of Plasmodium dipeptidyl aminopeptidase allosteric inhibitors by high throughput screening” (PLoS ONE, 2019)
In all, about 110,000 compounds went through this assay and about 230 (0.21%) showed an effect of 50% or more. Some of the results follow.

Target: DPAP1 (Plasmodium falciparum, UniProt Q8IIJ9)
Assay: primary screen, percent inhibition; read by cleavage of a fluorogenic dipeptide substrate; higher = more effect of the substance
Design: species or system P. falciparum D10 trophozoite lysates; single well
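Also: 30 min substrate incubation versus DMSO and 10 µM JCP410 controls.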

Sequence of DPAP1 (Q8IIJ9 whole entry, looked up): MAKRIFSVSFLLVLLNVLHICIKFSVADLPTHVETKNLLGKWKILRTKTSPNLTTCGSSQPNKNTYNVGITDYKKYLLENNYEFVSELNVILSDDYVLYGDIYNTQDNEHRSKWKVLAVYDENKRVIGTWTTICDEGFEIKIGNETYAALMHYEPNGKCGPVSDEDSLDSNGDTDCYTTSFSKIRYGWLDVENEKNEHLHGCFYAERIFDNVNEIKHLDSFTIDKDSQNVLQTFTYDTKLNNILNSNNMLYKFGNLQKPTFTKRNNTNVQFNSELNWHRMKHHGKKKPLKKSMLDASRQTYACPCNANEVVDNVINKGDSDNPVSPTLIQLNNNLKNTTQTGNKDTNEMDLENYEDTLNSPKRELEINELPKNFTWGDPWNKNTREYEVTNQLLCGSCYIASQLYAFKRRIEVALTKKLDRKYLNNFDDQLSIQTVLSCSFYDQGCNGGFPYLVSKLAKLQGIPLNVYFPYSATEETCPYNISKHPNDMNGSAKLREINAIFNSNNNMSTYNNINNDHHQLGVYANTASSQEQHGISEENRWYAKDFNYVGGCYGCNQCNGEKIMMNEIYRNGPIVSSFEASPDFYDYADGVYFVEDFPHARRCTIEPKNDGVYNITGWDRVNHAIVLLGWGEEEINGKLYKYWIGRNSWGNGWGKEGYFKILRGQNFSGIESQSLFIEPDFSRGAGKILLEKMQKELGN

Going from `CN(Cc1ccccc1)c1nnc(NC(=O)c2cc(-c3ccc(Br)cc3)on2)s1` to `CN(Cc1ccccc1)C(=O)CSc1ccc(Cl)cc1`, the “% Inhibition @ 10 uM” value falls from 3.3% to 0.674%.

Going from `O=C(CCC(=O)N1Cc2ccccc2Oc2ncccc21)NCc1ccco1` to `O=C(O)CCC(=O)NCCC(c1ccccc1)c1ccccc1`, the “% Inhibition @ 10 uM” value falls from -1.7% to -6.65%.

Compared with `Cc1ccc(Oc2cc(-n3ncc(C(N)=O)c3N)ncn2)cc1`, `Cc1ccc(C2C(C#N)=C(N)Oc3c2c(C)nn3-c2cccc(F)c2)cc1` (centres unmarked) is lower in “% Inhibition @ 10 uM” value: 1.57% for the first, 0.866% for the second.

First: NC1=NC(=O)CC(Cc2ccccc2)N1 (centres unmarked)
Second: O=C1c2ccccc2C(O)N1Cc1ccccc1 (centres unmarked)
The “% Inhibition @ 10 uM” value of the first is higher: 8.98% for the first, -4.98% for the second.

Going from `N#CC1=C(N)n2ncnc2NC1c1ccc(F)cc1` (centres unmarked) to `Cc1[nH]c(-c2ccc(F)cc2)cc1C(=O)N1CCCC(C)C1` (centres unmarked), the “% Inhibition @ 10 uM” value falls from 4.85% to -2.52%.

Going from `CCC(CN1CCOCC1)NS(=O)(=O)c1c(C)nc2scc(C)n2c1=O` (centres unmarked) to `O=C(Cn1ncc2c3ccccc3nc-2c1O)NCCCN1CCOCC1`, the “% Inhibition @ 10 uM” value rises from -2.7% to 1.19%.

Compared with `O=C(c1ccccc1)c1ccc(NS(=O)(=O)c2ccc(F)cc2)cc1`, `O=C(CCC(=O)c1ccc(Oc2ccccc2)cc1)Nc1ccc(F)cc1` is lower in “% Inhibition @ 10 uM” value: 3.29% for the first, -0.478% for the second.

Compared with `CN(C)CCN(C)Cc1ccc2c(c1)OCO2`, `CN(C)CCN(Cc1ccccc1)C(=O)c1cc2c(s1)-c1ccccc1OC2` is higher in “% Inhibition @ 10 uM” value: -4.58% for the first, -1.37% for the second.

Compared with `CC(C)C[C@H](NC(=O)OC(c1ccccc1)c1ccccc1)C(=O)NCC#N`, `N#CCNC(=O)[C@H](Cc1csc2ccccc12)NC(=O)OCc1ccccc1` is higher in “% Inhibition @ 10 uM” value: -3.04% for the first, -1.41% for the second.

Compared with `Cc1ccc(C)c(NC(=O)CN(C2CCCCC2)S(=O)(=O)c2ccccc2)c1`, `CS(=O)(=O)N(CC(=O)Nc1ccc(F)c(Cl)c1)C1CCCCC1` is lower in “% Inhibition @ 10 uM” value: 1.96% for the first, -9.31% for the second.

First: O=C(CNC(=O)c1cccs1)NCCc1ccccc1
Second: CCCC(CCC)C(=O)Nc1cccc(NC(=O)c2cccs2)c1
The “% Inhibition @ 10 uM” value of the first is higher: 0.387% for the first, -8.68% for the second.

Compared with `CCOC(=O)N1CCN(C(=O)CSc2cc(C)nc3c(-c4ccccc4OC)c(C)nn23)CC1`, `CCn1cc(/C=C(\NC(=O)c2ccc(C)cc2)C(=O)N2CCN(C)CC2)c2ccccc21` is higher in “% Inhibition @ 10 uM” value: 0.0198% for the first, 4.8% for the second.

Compared with `CCn1c(=O)c(C(=O)Nc2nc3ccccc3s2)c(O)c2ccccc21`, `CCCC(=O)Nc1ccc2c(c1)c1ccccc1n2CC` is higher in “% Inhibition @ 10 uM” value: 0.431% for the first, 4.11% for the second.

First: CCCc1[nH]nc2c1C(c1ccco1)C(C#N)=C(N)O2 (centres unmarked)
Second: N#CC1=C(N)Oc2c(oc(CO)cc2=O)C1c1ccc(OCc2ccccc2)cc1 (centres unmarked)
The “% Inhibition @ 10 uM” value of the first is lower: -2.89% for the first, 2.38% for the second.

First: Cc1ccc(N2C(=O)CC3CS(=O)(=O)CC32)c(C)c1 (centres unmarked)
Second: CCCNC(=O)C1=CC(c2ccc(C)cc2)=NS(=O)(=O)N1C
The “% Inhibition @ 10 uM” value of the first is higher: 2.17% for the first, -4.68% for the second.

First: CCOc1cc(C(=O)NC2=NCCS2)cc(OCC)c1OCC
Second: COc1cc(C(=O)NCCc2ccccc2)cc(OC)c1OC
The “% Inhibition @ 10 uM” value of the first is lower: -1.44% for the first, 1.33% for the second.

Compared with `CCN1CCC(NCCCN2CCOCC2)CC1`, `CCC1CCC(N2CCOCC2)CC1` (centres unmarked) is lower in “% Inhibition @ 10 uM” value: 1.88% for the first, -3.15% for the second.

First: COCCN1C(=O)c2oc3ccc(F)cc3c(=O)c2C1c1cccc(O)c1 (centres unmarked)
Second: CCOc1ccc(C2c3c(oc4ccc(F)cc4c3=O)C(=O)N2CC2CCCO2)cc1OC (centres unmarked)
The “% Inhibition @ 10 uM” value of the first is higher: 2.31% for the first, -7.33% for the second.

First: COc1cc(-c2noc(-c3cc4ccccc4oc3=O)n2)cc(OC)c1OC
Second: COc1ccc2ccccc2c1C=C1C(=O)OC(C)(C)OC1=O
The “% Inhibition @ 10 uM” value of the first is higher: 7.52% for the first, -0.339% for the second.

Compared with `Cc1c(Cl)cccc1NC1=NC(=O)/C(=C/c2ccc(OCC(=O)O)cc2)S1`, `CCOc1ccc(CNC(=O)C(CC)n2nc(C)c3c(C)n(-c4ccccc4)nc3c2=O)cc1` (centres unmarked) is lower in “% Inhibition @ 10 uM” value: 2.43% for the first, -4.57% for the second.

Going from `Cn1ncc2c(N3CC=C(c4ccccc4)CC3)ncnc21` to `Cc1c(-c2cccc(Cl)c2)nc2ccccc2c1C(=O)NCCN1CCOCC1`, the “% Inhibition @ 10 uM” value falls from 6.29% to -1.1%.

Compared with `COc1ccc(C2N(C(=O)CN3CCCC3)CCN2S(=O)(=O)c2ccccc2)cc1` (centres unmarked), `Cc1cccc(N(CC(=O)N2CCN(Cc3ccccc3)CC2)S(=O)(=O)c2ccccc2)c1` is higher in “% Inhibition @ 10 uM” value: 3.16% for the first, 4.49% for the second.

First: O=C(NCc1nnc(S)n1Cc1ccccc1)c1ccc(S(=O)(=O)N2CCOCC2)cc1
Second: Cc1ccc(Nc2nc(-c3ccc(S(=O)(=O)N4CCCCC4)cc3)cs2)cc1
The “% Inhibition @ 10 uM” value of the first is higher: 1.67% for the first, -0.591% for the second.

Going from `COc1ccc(C(=O)C2=C(O)C(=O)N(c3nc4ccc(C)cc4s3)C2c2cccnc2)cc1` (centres unmarked) to `COc1ccc(C(=O)C2=C(O)C(=O)N(CCCn3ccnc3)C2c2ccccn2)cc1` (centres unmarked), the “% Inhibition @ 10 uM” value falls from 5.09% to -15.1%.

Going from `CC(NC(=O)CN1CCCCC1)C1CC2CCC1C2` (centres unmarked) to `O=P(O)(CCc1ccccc1)CN1CCCCC1`, the “% Inhibition @ 10 uM” value falls from -1.32% to -3.27%.

Going from `N#Cc1c(NC(=S)NC(=O)c2cccnc2)sc2c1CCCC2` to `NC(=O)c1c(NC(=O)CCCC(=O)O)sc2c1CCCCCC2`, the “% Inhibition @ 10 uM” value falls from 4.65% to 0.76%.

Compared with `CCN1CCC2(CC1)OC(=O)C(C)=C2C(=O)NCCCOC`, `CC(C)(C)c1ccccc1OCCCCN1CCCC1` is lower in “% Inhibition @ 10 uM” value: -0.501% for the first, -2.12% for the second.

Compared with `O=C(CSc1nnc(CNC(=O)c2c(F)cccc2Cl)o1)NCC1CCCO1` (centres unmarked), `CC(C)NC(=O)CSc1c2c(nc3ccc(Cl)cc13)CCCC2` is lower in “% Inhibition @ 10 uM” value: -5.27% for the first, -8.9% for the second.

Compared with `O=c1c(CN2CCCC(O)C2)coc2ccccc12` (centres unmarked), `Clc1ccccc1N1CCN(Cc2c[nH]c3ccccc23)CC1` is higher in “% Inhibition @ 10 uM” value: -6.21% for the first, -2.56% for the second.

First: Cc1cccc(C)c1N1C(=O)c2ccc(C(=O)O)cc2C1=O
Second: Cc1cc(C)c(C)c(S(=O)(=O)NCc2ccc(C(=O)Nc3cccnc3)cc2)c1C
The “% Inhibition @ 10 uM” value of the first is higher: 2.27% for the first, -1.51% for the second.

First: COc1cc(SC)ccc1C(=O)Nc1cc(Cl)ccc1C
Second: COc1cc(C)ccc1OCCOc1ccc(/C=C2/C(=N)N3OC(C)=CC3=NC2=O)cc1Cl
The “% Inhibition @ 10 uM” value of the first is lower: -0.981% for the first, 2% for the second.

Going from `O=C(Cn1ncc2c(Cl)cccc21)NC1CCCCCC1` to `CCOc1ccccc1CNC(=O)Cn1ncn2c(cc3sc(C)cc32)c1=O`, the “% Inhibition @ 10 uM” value rises from -2.88% to 0.0198%.

Compared with `CCc1ccc(S(=O)(=O)NCc2csc(C)n2)cc1`, `Cc1ccc(NC(=O)C(C)S(=O)(=O)c2nc3nc(C)cc(C)n3n2)cc1` (centres unmarked) is lower in “% Inhibition @ 10 uM” value: -0.72% for the first, -5.19% for the second.

Compared with `O=C1S/C(=C/c2ccccc2F)C(=O)N1CCNC1=NS(=O)(=O)c2ccccc21`, `CCOC(=O)c1cnn(-c2ccccc2)c1NC(=O)CSC1=NC(=O)C(c2ccccc2)C(=O)N1` (centres unmarked) is higher in “% Inhibition @ 10 uM” value: -1.22% for the first, -0.597% for the second.

First: CCOc1ccc(CCNCc2c(C(=O)O)n(Cc3ccc(F)cc3)c3cc(C)ccc23)cc1
Second: CCCC[C@H](NC(=O)[C@H](Cc1ccc2ccccc2c1)NC(=O)c1ccc(CN)cc1)C(=O)CO
The “% Inhibition @ 10 uM” value of the first is higher: 1.26% for the first, -0.778% for the second.

Compared with `Cc1cc(S(=O)(=O)N2CCn3c(nc4ccccc43)C2)ccc1F`, `Cc1ccnc(SC2CC(=O)N(c3ccccc3)C2=O)n1` (centres unmarked) is higher in “% Inhibition @ 10 uM” value: 2.34% for the first, 2.36% for the second.

First: Cc1nc(Nc2ncc3c(n2)CC(C)(C)CC3=O)nc2ccccc12
Second: CCOc1cc(C2C(C#N)=C(N)OC3=C2C(=O)CC(C)(C)C3)ccc1OC(C)C (centres unmarked)
The “% Inhibition @ 10 uM” value of the first is higher: 5.31% for the first, -0.941% for the second.

Going from `CC12CN3CC(C)(CN(C1)C31CCCC1)C2=O` to `CC(C)(C)C(=O)N1CCCC(C(=O)Nc2sc3c(c2C(N)=O)CCCC3)C1` (centres unmarked), the “% Inhibition @ 10 uM” value rises from -4.35% to 8.37%.

First: CC(C)CCNC(=O)Cn1nc(-c2ccccc2)ccc1=O
Second: CC(C)c1ccc(C2CC(=O)Nc3ccccc3S2)cc1 (centres unmarked)
The “% Inhibition @ 10 uM” value of the first is higher: 0.514% for the first, -4.82% for the second.

Going from `COc1ccccc1-c1nnc2sc(-c3cccnc3)nn12` to `O=C(Nc1cccnc1)c1coc(=O)c2ccccc12`, the “% Inhibition @ 10 uM” value falls from 1.25% to -2.4%.

Compared with `FC(F)(F)c1cccc(-n2c(S)nnc2CN2CCSCC2)c1`, `c1ccc(CN2CCSCC2)nc1` is higher in “% Inhibition @ 10 uM” value: -5.48% for the first, -1.78% for the second.

Going from `O=C1CCCc2c1nc(-c1ccco1)n2O` to `COc1ccc(C2Oc3c(OC)cccc3C3CC(c4ccco4)=NN32)cc1` (centres unmarked), the “% Inhibition @ 10 uM” value rises from -1.5% to 15.8%.

First: CCC(C)(C)C1CCc2c(sc(N)c2C(=O)OC)C1 (centres unmarked)
Second: Cc1cccc(-n2ncc(C(=O)NCc3ccccc3)c2C2CCN(C(=O)OC(C)(C)C)CC2)c1
The “% Inhibition @ 10 uM” value of the first is higher: 0.132% for the first, -9.2% for the second.

Compared with `O=C(NCC(O)c1ccccc1)c1nc(-c2ccc3c(c2)OCO3)no1` (centres unmarked), `O=C(O)c1ccc(COc2ccccc2CO)cc1` is lower in “% Inhibition @ 10 uM” value: -1.85% for the first, -3.23% for the second.

Compared with `CCCNC(=O)NC1(C(F)(F)F)Oc2cc(Cl)c(Cl)cc2O1`, `CCCS(=O)(=O)c1c(S(=O)(=O)CCC)c2c(C)cccn2c1C(=O)OC` is higher in “% Inhibition @ 10 uM” value: -2.9% for the first, 4.6% for the second.

Going from `c1ccc(CC2CCN(CCCNc3nc4ccccc4n4nnnc34)CC2)cc1` to `COc1ccc(N2C(=O)CC(N(CCc3ccccc3)C(=O)c3ccccc3)C2=O)cc1` (centres unmarked), the “% Inhibition @ 10 uM” value falls from 4.33% to 2.09%.

Going from `Nc1ccc(-c2nnc(-c3ccc(-c4ccccc4)cc3)o2)cc1` to `O=C(Nc1cccnc1)c1ccc(COc2cccc3ccccc23)cc1`, the “% Inhibition @ 10 uM” value falls from 17.4% to 0.413%.

First: Cc1ccc(-c2[nH]ncc2CNC23CC4CC(CC(C4)C2)C3)cc1C
Second: COc1ccc(OC)c(C2CC(=O)C3=C(C2)NC(=O)CC3c2cccc(Cl)c2Cl)c1 (centres unmarked)
The “% Inhibition @ 10 uM” value of the first is lower: 2.31% for the first, 2.54% for the second.

Compared with `Clc1ccccc1OCCCn1ccnc1`, `O=C(Nc1ccc(Br)cc1)Nc1ccc2ccccc2c1` is lower in “% Inhibition @ 10 uM” value: -0.351% for the first, -6.25% for the second.

Compared with `O=C(O)COc1ccc(Br)cc1/C=C1/NC(=O)NC1=O`, `COc1ccc(C(=N)NOC(=O)Cc2cccs2)cc1` is lower in “% Inhibition @ 10 uM” value: 3.15% for the first, -3.13% for the second.

In the case of `COC(=O)[C@H](C)NC(=O)[C@@H]1CCCN1C#N`, the “% Inhibition @ 10 uM” value is reported as 0.744%.
